The supplement of paper PMC11417369
± gives the standard deviation of the averaged measurements. This is one part of the list.

System: PfAP2-LT AP2 domain (GST-tagged)
Assay: gcPBM binding intensity (ln(normalized median fluorescence intensity)); higher = stronger DNA binding
Procedure, shortened: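 For binding intensity, the highest Masliner-normalised natural-log median intensity across replicate spots of either probe orientation was taken. Protein bound to the array was stained with Alexa488 anti-GST antibody and scanned at 488 nm. The protein, GST-tagged P. falciparum DNA-binding domains from E. coli at about 25 μg on average, had been applied for 1 h to an Agilent 4 × 180k array of primer-extended double-stranded 36-bp intergenic genomic probes and negative controls.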

Sequence | gcPBM binding intensity (ln)
CAGTAGTATATACTATGTACATATTTATATTATATT [XGTACX_site4964] | 8.91 ± 0.4
TAATAAATAAAAATAGAACACACATATGTTTTTTTT [CACACA_site9185] | 8.7 ± 0.47
AAAAAAAAAAAAAAATGTACATATATATAAATAAAA [XGTACX_site5574] | 8.61 ± 0.58
ATATTTATATATTGCACACAAAAAAAAAAAAAAATC [CACACA_site1629] | 9.02 ± 0.47
TATATATATATGTAATGTACATAAATTTTATACCTT [XGTACX_site6991] | 8.84 ± 0.36
AACAACCAAACGCACACACACAAAAAAAAAAATATA [CACACA_site6326] | 9.88 ± 0.57
TTATATGCATAAAAAGGTACACATATATAAATAAAT [XGTACX_site6894] | 8.91 ± 0.4
ACATTTAAAATTTATGCATGTGGTGTTTTGTATATA [TGCATGCA_site534] | 9.11 ± 0.48
TAATAAAATGTACACGCATGCAATAGAATATAAAGT [TGCATGCA_site905] | 9.45 ± 0.3
TTTGTGTAGGTGTGTAGTACATATAACTTATAACAT [XGTACX_site7885] | 9.09 ± 0.31
TATATTCATAATATTACACACGTTCATTTATTTTAA [CACACA_site2031] | 8.96 ± 0.42
GAGTGAAATATGCAAACACACACGAGAAAAATGTAT [CACACA_site3196] | 9.57 ± 0.37
TATGGTTTTAAAAAATGTACGCAAGTGCGTTAATTT [XGTACX_site3945] | 8.54 ± 0.33
AAATTTATAAAGAACACACACATATAAATATAAATA [CACACA_site6174] | 9.37 ± 0.41
TTATATATTTATATATGTACACATTTTACCATTTTT [XGTACX_site2142] | 8.8 ± 0.47
TTTTTTTGTTAAAAGGTGCTAATATATATAAGTGCT | 8.44 ± 0.42
GTCCCTATAAGGGGAACACACATAAATGAATATATA [CACACA_site1024] | 8.84 ± 0.53
TTATAATTGTAAGGTAGTACATATAAATCAAATAAT [XGTACX_site7190] | 8.69 ± 0.47
ATACAAACAATTATTTGTACATAAAATTTTTTTTTT [XGTACX_site90] | 8.54 ± 0.53

Sequence | gcPBM binding intensity (ln)
ATGAATCTTTTAAAAAGTACATGTGAAAAAAATAAA [XGTACX_site49] | 8.6 ± 0.57
ATTTATTTCTTGTTAGTGCACTTTCTTTGGTAAAAT | 8.87 ± 0.4
TTAAAATGTTGTAACGTGCACATTTTGTGGAAATCA [GTGCAC_site9559] | 8.66 ± 0.4
TATGTTAAAAAAAAAAAAAAGAAAAAAATAAAAGGA [CACACA_negctrl_site119] | 8.43 ± 0.55
AAACAAATAGACACTTGTACGTAAGTAAATAATTAA [XGTACX_site6157] | 9.18 ± 0.56
TATTTTACTTTAAAAATGGAAAAAAAAAAGAATATT [CACACA_negctrl_site1360] | 8.16 ± 0.54
TTTTTTTTTTTTACATGTACATATGAATTATAATAT [XGTACX_site5016] | 8.8 ± 0.47
TTAATAAAACTAACACGTACACATATATAATATTAT [XGTACX_site3260] | 8.85 ± 0.37
GAAAGAAGCATAAATGTACACACATATTTATATATT [CACACA_site8368] | 9.06 ± 0.45
ATTGTCATCATTATATGTACGTAAAAGAATATAGAT [XGTACX_site3117] | 8.81 ± 0.44
TTTCTATATAGATTTGCACACATAAAAATGCTTATA [CACACA_site2390] | 9.07 ± 0.35
CTTTATACATGACATAGTACCCATTTTAGATTTGAA [XGTACX_site5240] | 8.51 ± 0.46
AAGGGAAAAATATGGTTGCACTAAAAATATGTAATT [GTGCAC_site9605] | 8.64 ± 0.54
TTTATATATTTTTATCTTGATAATAATGTTTTAGAA [TGCATGCA_negctrl_site300] | 8.27 ± 0.44
ACATATTTTTACTTTTGTACATATTTTTTAATTTTC [XGTACX_site640] | 9.01 ± 0.48
GTATATTACATAAAATGTACATAAAAAGCGGAAAAG [XGTACX_site6905] | 9.05 ± 0.47
TATATTAATTATAAGACACACATATAGTAATAGAAA [CACACA_site2056] | 8.9 ± 0.43
ATGGGTTAGGCGTGTACACAATTGTATGGTTTAATA [CACACA_site4812] | 9.09 ± 0.33
AATAAGAAAACAAATGCACACCATTTATATAGATTA [CACACA_site8261] | 8.94 ± 0.43

Sequence | gcPBM binding intensity (ln)
TTCAAATATATGTTTTCACACACAAAAGAAATGAAA [CACACA_site8671] | 8.96 ± 0.39
CGTGGAAAAAAAAACACACACAAAAAAAAAAAAAAA [CACACA_site3997] | 9 ± 0.62
ATATATATATAATATTGTACGAAAAAAAATAAAAAA [XGTACX_site974] | 8.7 ± 0.47
TTTTCTCTAAAAAGGTGTACAACTAATAATGCACTG [XGTACX_site6074] | 8.64 ± 0.45
AAATATAATTAATGATGTACACTTATAGATATTGAT [XGTACX_site8435] | 8.75 ± 0.41
GGGTTAATATTTACTACACACACTTAAAATATGTAT [CACACA_site47] | 9.18 ± 0.39
ATGTATTTTTAAAAATATAAATTATGTAACTTGTGA [XGTACX_negctrl_site620] | 8.54 ± 0.5
TATTCTCGTTCTCATACACACAAAATATACATACAC [CACACA_site7278] | 9.07 ± 0.38
TATAATAAAATTTTTACACACTTTAAAAAAAAAAAA [CACACA_site524] | 8.4 ± 0.54
TACTGATATAATATAACCGTTTATGTGTATTTTTTA [XGTACX_negctrl_site81] | 8.76 ± 0.51
TTTTGTTCTAATATGGGAACATAAATATTAAATATA [CACACA_negctrl_site1787] | 8.14 ± 0.48
ATATAAATATTAATTACACACAAAAAAAAAAAAAAA [CACACA_site6671] | 8.88 ± 0.43
AATGGAAAAGGTAGTTGTACAACATGTTAAAATGGT [XGTACX_site1312] | 9.2 ± 0.42
ATATAAATAAACAACTTTGTTGGCCTTCCAAAATAT [CACACA_negctrl_site1181] | 8.69 ± 0.43
TTGAAGAATAAATATGCACACATGCATATATTTTTA [CACACA_site5840] | 8.69 ± 0.35
AATAAAAAAAAACGCACACACAAATATATTCCATTC [CACACA_site1224] | 9.64 ± 0.24
CTCAAAAAATTTCATAGTACTTTAAAATACTATAAT [XGTACX_site1939] | 8.27 ± 0.35
ATATATATTTAAAACGCATGCCTTGTTATATATATA [TGCATGCA_site624] | 9.06 ± 0.53
CATATATATTTTATATGTACATATATATTTTATATA [XGTACX_site8665] | 8.76 ± 0.37
